PubChem BioAssay AID504339 (National Center for Advancing Translational Sciences (NCATS), 2011)
Among all 390,000 compounds or so, about 17,000 (4.4%) were called active. The inconclusive results got no clear call from the source; some entries with a clear call stand among them for comparison. Calls follow the shape of the dose curve; as a rule, active = well fitted inhibition curve with a large enough effect; inconclusive = small, poorly fitted or top-dose-only effect; inactive = no such curve, though single readings can be large or run the other way. A potency beside an inconclusive call is a rough fit, not a confirmed value.

The compounds below were run against Lysine-specific demethylase 4A (Homo sapiens) (UniProt O75164) (assay: qHTS Assay for Inhibitors of JMJD2A-Tudor Domain). Settings: AlphaScreen JMJD2A-Tudor / H3K4me3 peptide binding; series mostly up to 114 µM.
Also: nearly all actives have a fitted effect of over 50% in size.
Potency is read from the fitted curve at half-maximal effect; tags tell the direction and shape of the fitted curve.

Chain of UniProt O75164 (O75164 whole entry, looked up, the tested form may be a part): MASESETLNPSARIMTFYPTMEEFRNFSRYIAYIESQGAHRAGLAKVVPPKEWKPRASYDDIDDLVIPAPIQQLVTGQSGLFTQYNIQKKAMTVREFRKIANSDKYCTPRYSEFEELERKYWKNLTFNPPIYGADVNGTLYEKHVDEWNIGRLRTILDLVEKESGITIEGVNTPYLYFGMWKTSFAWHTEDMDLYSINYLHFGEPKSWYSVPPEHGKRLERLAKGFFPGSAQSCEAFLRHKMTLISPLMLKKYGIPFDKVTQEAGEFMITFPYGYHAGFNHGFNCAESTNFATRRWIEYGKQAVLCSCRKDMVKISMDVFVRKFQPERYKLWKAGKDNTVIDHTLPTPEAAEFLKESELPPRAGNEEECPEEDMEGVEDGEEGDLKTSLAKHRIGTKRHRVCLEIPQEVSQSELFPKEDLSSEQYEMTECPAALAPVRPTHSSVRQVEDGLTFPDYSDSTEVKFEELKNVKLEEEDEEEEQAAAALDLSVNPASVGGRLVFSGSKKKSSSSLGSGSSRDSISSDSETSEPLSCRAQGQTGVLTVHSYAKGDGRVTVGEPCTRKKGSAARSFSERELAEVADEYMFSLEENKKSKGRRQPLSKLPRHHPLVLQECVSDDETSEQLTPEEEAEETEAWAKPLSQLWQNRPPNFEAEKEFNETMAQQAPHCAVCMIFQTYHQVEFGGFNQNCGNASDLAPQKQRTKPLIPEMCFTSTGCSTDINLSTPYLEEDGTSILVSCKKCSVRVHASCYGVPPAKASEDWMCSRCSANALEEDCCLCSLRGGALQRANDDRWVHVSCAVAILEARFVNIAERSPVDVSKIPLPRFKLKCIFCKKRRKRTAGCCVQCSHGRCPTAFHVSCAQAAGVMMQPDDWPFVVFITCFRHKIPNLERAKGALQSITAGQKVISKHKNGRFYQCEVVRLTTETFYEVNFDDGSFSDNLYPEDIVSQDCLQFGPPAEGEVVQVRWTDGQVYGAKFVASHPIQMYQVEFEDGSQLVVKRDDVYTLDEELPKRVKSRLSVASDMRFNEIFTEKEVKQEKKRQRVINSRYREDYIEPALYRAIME

| Compound | Potency |
| --- | --- |
| CC(=O)COC(=O)C1CCN(S(=O)(=O)c2cc([N+](=O)[O-])ccc2Cl)CC1 | active: 56.2 µM |
| O=C(NC(=S)Nc1cccc(F)c1)c1cccc([N+](=O)[O-])c1 | inconclusive: 56.2 µM [inhibitor, partial curve] |
| Cc1ccc(S(=O)(=O)Nc2cc(Br)cc3cccnc23)cc1 | inactive |
| Cc1c(C)n(CCc2ccccc2)c2ncnc(NCCCN(C)C)c12 | inconclusive: 89.1 µM [inhibitor, partial curve] |
| Cc1ccc(N=Nc2[nH]c3ccccc3c2O)cc1 | inconclusive: 22.4 µM [inhibitor, partial curve] |
| Cc1ccc(C2C(C(=O)c3cccs3)=C(O)C(=O)N2CCN2CCOCC2)o1 (stereo not given) | inconclusive: 39.8 µM [inhibitor, full curve, poor fit] |
| Cc1ccc(NCc2cccn2-c2nnc(N3CCC(C(=O)NCc4ccccc4C)CC3)s2)cc1 | inactive |
| Cc1c(Cl)cccc1NC(=O)c1cc(-c2cccs2)on1 | inactive |
| Cc1cc(CNC(=O)CC2C(=O)NCCN2Cc2ccccc2C(F)(F)F)nn1C (stereo not given) | inactive |
| COc1ccc([N+](=O)[O-])cc1-n1cccc1 | inconclusive: 25.1 µM [inhibitor, single point] |
| CCOc1ccc(NC(=O)CC2Nc3cccc4cccc(c34)NC2=O)cc1 (stereo not given) | inconclusive: 50.1 µM [inhibitor, partial curve] |
| COc1cc(/C=C2\SC(=O)N(c3ccccc3Cl)C2=O)cc([N+](=O)[O-])c1O | active: 35.5 µM |
| COc1cccc(N=Nc2c(=O)[nH]n3c(C)cc(C)nc23)c1 | inconclusive: 6.31 µM [inhibitor, full curve, poor fit] |
| Cc1ccc(C)c(N2CCN(C(=O)CN3CCSc4ccccc43)CC2)c1 | inconclusive: 50.1 µM [inhibitor, partial curve] |
| Cc1c(Cl)cccc1NC(=O)N1CCN(C(=O)c2ccco2)CC1 | inconclusive: 14.1 µM [inhibitor, single point] |
| CSC1CCCCC1(O)CSc1nc2c(cc1C#N)CCCC2 (stereo not given) | active: 20 µM |
| C=CCNc1nnc(-c2cccc3ccccc23)o1 | active: 11.2 µM |
| C#CCNC(=O)C1=C[C@H](c2coc3ccccc3c2=O)C[C@H](OCCCCO)O1 | inactive |
| COc1ccc(NC(=O)CCc2nc3cccnc3n2-c2ccccc2)c(OC)c1 | inconclusive: 5.01 µM [inhibitor, full curve, poor fit] |
| S=C(NCc1ccc2c(c1)OCO2)Nc1ccc(-c2nc3ccccc3[nH]2)cc1 | inconclusive: 79.4 µM [inhibitor, partial curve] |
| COc1ccc2c(c1)CCCC(Br)C2=O (stereo not given) | active: 50.1 µM |
| C/C(=N/N1CCN(c2ccccc2)CC1)c1cccc([N+](=O)[O-])c1 | inconclusive: 44.7 µM [inhibitor, partial curve] |
| O=C(NC(=S)Nc1ccc(N2CCCCC2)cc1)c1ccc2c(c1)OCCO2 | inconclusive: 17.8 µM [inhibitor, partial curve] |

| Compound | Potency |
| --- | --- |
| Cn1c(C(=O)NCCCN2CCN(c3cccc(Cl)c3)CC2)cc2c(=O)n(C)c3ccccc3c21 | inconclusive: 11.2 µM [inhibitor, full curve] |
| COC(=O)C1=C(C(=O)OC)[C@@H]2N(C)c3ccc(OC)cc3[C@@]23C[C@@H](C(=O)OC)N(C(=O)NCCBr)C3=N1 | inconclusive: 44.7 µM [inhibitor, partial curve] |
| CC(C)CC(=O)N1CCN(Cc2ccc(Br)cc2)CC1 | active: 20 µM |
| CSCCC(NS(=O)(=O)c1ccccc1F)C(=O)N1CC=C(c2ccccc2)CC1 (stereo not given) | inconclusive: 89.1 µM [inhibitor, partial curve] |
| CCCNC(=S)N1CCC(NC(=O)C2CCCCC2)CC1 | active: 22.4 µM |
| CCC1(c2ccccc2)NC(=S)N(c2ccc(C)c(C)c2)N1 (stereo not given) | inconclusive: 50.1 µM [inhibitor, partial curve] |
| O=C(OCc1nnc(-c2ccccc2)o1)c1ccc([N+](=O)[O-])s1 | inconclusive: 31.6 µM [inhibitor, full curve, poor fit] |
| O=C1COc2ccc(C(=O)/C=C/c3ccccc3)cc2N1 | inconclusive: 50.1 µM [inhibitor, partial curve] |
| CCOc1cc(/C=C2/SC(=S)NC2=O)ccc1OC(=O)c1ccco1 | inconclusive: 39.8 µM [inhibitor, partial curve] |
| CC(/C=N\NC(=O)CN1CCN(S(=O)(=O)c2ccc(C)cc2)CC1)=C\c1ccccc1 | inconclusive: 44.7 µM [inhibitor, single point] |
| CC(Oc1ccc(Br)cc1)C(=O)Nc1nc(-c2ccccn2)cs1 (stereo not given) | active: 79.4 µM |
| CC(=O)Oc1ccc2c(=O)c(Oc3ccccc3)coc2c1OC(C)=O | inconclusive: 79.4 µM [inhibitor, single point] |
| Brc1ccc2c(c1)C(c1cccnc1)=NNC(c1cccs1)=N2 | inconclusive: 56.2 µM [inhibitor, partial curve] |
| COc1ccc(C(C[N+](=O)[O-])c2c(C)[nH]c3ccccc23)cc1OC (stereo not given) | inconclusive: 25.1 µM [inhibitor, single point] |
| O=C(C1CCN(S(=O)(=O)c2cc(Cl)ccc2Cl)CC1)N1CCOCC1 | inactive |
| COc1cc2c(cc1OC)CN(C(=O)c1ccc3[nH]c(C)c(C)c3c1)CC2 | inconclusive: 56.2 µM [inhibitor, partial curve] |
| CSc1ccccc1C(=O)Nc1ncn[nH]1 | active: 79.4 µM |
| O=S(=O)(c1cccc2cnccc12)N1CCCNCC1 | active: 89.1 µM |
| Oc1cccc(/C=N/N(Cc2ccccc2)c2ccccc2)c1 | inconclusive: 25.1 µM [inhibitor, full curve] |
| CC(C)SC1=NC(C)(C)C=C(/C=C/c2ccc(Cl)cc2Cl)N1 | inactive |
| CC(C)c1nn2c(=O)cc(COC(=O)c3cccc(NC(=O)c4ccccc4F)c3)nc2s1 | inactive |
| COc1cccc(CNC(=O)CN2C(=O)NC(c3ccccc3)(c3ccccc3)C2=O)c1 | inactive |
